From article PMC12136788
Some of the results follow.

T1: UNK ZnF1-6 (called full-length) (human, UniProt Q9C0B0 30-357)
T1 sequence: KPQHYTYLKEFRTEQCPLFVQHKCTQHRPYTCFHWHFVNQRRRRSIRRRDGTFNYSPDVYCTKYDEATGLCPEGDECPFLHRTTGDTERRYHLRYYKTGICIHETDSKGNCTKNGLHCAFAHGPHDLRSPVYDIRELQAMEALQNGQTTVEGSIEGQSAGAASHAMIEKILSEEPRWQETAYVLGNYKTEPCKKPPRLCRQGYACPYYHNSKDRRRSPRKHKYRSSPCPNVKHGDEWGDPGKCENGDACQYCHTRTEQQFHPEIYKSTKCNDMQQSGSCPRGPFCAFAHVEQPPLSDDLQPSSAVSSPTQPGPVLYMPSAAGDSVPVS

B1: chr8:11323570:11323671:+|3pUTR|ENSG00000104643|unk|FALSE|unique (ssRNA)
RNA: GGGAGUUCUACAGUCCGACGAUCGAGCAUACAUAUACAAUGUGUUUCAAAUGCUGCUUGUAAAAUUAAACCAUCAUCUAGAAUAGAGUUAAUUUAUUAUAAUCAAGCUACAAAUAGGUUUUCUUAAACCAGAGAUGCACUGCCCAACAGAGGAUUGAGCAUCA
B2: chr21:43982464:43982545:+|3pUTR|ENSG00000160216|msi1_unk|total|mutant (ssRNA)
RNA: GGGAGUUCUACAGUCCGACGAUCCCCUGACGGUGGUAUCCAGUUAACUCAAAACCAACACACAGAGUGCAGGAAAAGACAAUCCGAAACUAUUUUUCUUAUUAACUGGUGACUAAUAUUAACAAAACUUGAGCCAAGAGUAAACAACAGAGGAUUGAGCAUCA
B3: ENSG00000070961:be:win_2651|CDS|ENSG00000070961|bound_else_gene|NA|bound_elsewhere_windowed (ssRNA)
RNA: GGGAGUUCUACAGUCCGACGAUCCUGUGCAGAUGCUGUGGGUAAACCUCAUAAUGGAUACACUCGCUUCCCUGGCUCUGGCAACGGAACCACCCACUGAGUCUCUCUUGCUUCGGAAACCUUAUGGUAGAAAUAAGCCUCUCACAACAGAGGAUUGAGCAUCA
B4: chr4:75876286:75876673:-|CDS|ENSG00000156194|control|control|control (ssRNA)
RNA: GGGAGUUCUACAGUCCGACGAUCCGGUUCCCUGGACGGGCGGGAGCUCUCCCGGCAGGUGCGGAGCUCCGUGGAACUGGAGCUAGAGCGGUGCCGGCAGCAAGCAGGCCUCCUGGUGACCGGAGAGAAAGAGGAGCCCUCCCGCAACAGAGGAUUGAGCAUCA
B5: chr14:80199969:80200157:-|3pUTR|ENSG00000211448|msi1|FALSE|unique (ssRNA)
RNA: GGGAGUUCUACAGUCCGACGAUCUUUAUGAUUUCUUGUGAUGUAUUCUUUUAUGAAAUUAACAAGAACUCAUUAUUUUGAGGUAGAGGAAAAUCAAUGCUUUAUCUGAUAUGCUGAGAAAUUAUUAGAUUGCCAAUACUCAUGCAACAGAGGAUUGAGCAUCA
B6: chr18:5392435:5392536:-|3pUTR|ENSG00000082397|msi1|total|mutant (ssRNA)
RNA: GGGAGUUCUACAGUCCGACGAUCAAGCCUUAAACUGUACAGAAUUUCCACUGUAAUUAAAACUAUUCCGUGUCCGUUAUAAACCGCCUUCAAAAAGAGAGAUUCUCCAUUACACGAUCACCUGCAUCACAGCCCAUGGUGAAUCAACAGAGGAUUGAGCAUCA
B7: chr9:16436428:16436529:-|CDS|ENSG00000173068|msi1|FALSE|unique (ssRNA)
RNA: GGGAGUUCUACAGUCCGACGAUCCUCCCUAGCCAGCUAGUAUUUUCUGGGCUAAAGACUGUACAACCAGUUCCUCCAUUUUAUAGAAGUUUACUCACUCCAGGGGAAAUGGUGAGUCCUCCAACCUCCCUCCCAACCAGUCCCCAACAGAGGAUUGAGCAUCA
B8: chr15:43617570:43618356:-|three_prime_utr|ENSG00000284772|control|control|control (ssRNA)
RNA: GGGAGUUCUACAGUCCGACGAUCUACAUUCCUGGCCAACAUUUCUUCUUCCUUUGAGCCUGGGAGAAUGGGGGAAGGACCAGUAGGAGAGCCCCCACCUCUCCAGCCGCCUGCUCUGCGGCUCCAUGAUUUUCUAGUGACACUCAACAGAGGAUUGAGCAUCA
B9: chr12:53210768:53210868:-|3pUTR|ENSG00000172819|msi1_unk|FALSE|overlapping (ssRNA)
RNA: GGGAGUUCUACAGUCCGACGAUCAGGGGGGAUGCUGCUUAGCUGAUCCCGCCCUGACCCAGAGGAAGCCUCUAUUUAUUUAUUAGCUUUUGUUUACACCGUGGAAUUGACCCCUUCCUCCAGGGGUCUUGGGUGGGGGAGCCCCAACAGAGGAUUGAGCAUCA
B10: ENSG00000124766:be:win_1351|CDS_3pUTR|ENSG00000124766|bound_else_gene|NA|bound_elsewhere_windowed (ssRNA)
RNA: GGGAGUUCUACAGUCCGACGAUCACGCCCGAGGUGAGCGAGAUGAUCUCGGGAGACUGGCUCGAGUCCAGCAUCUCCAACCUGGUUUUCACCUACUGAAGGGCGCGCAGGCAGGGAGAAGGGCCGGGGGGGGUAGGAGAGGAGCAACAGAGGAUUGAGCAUCA
B11: chr1:183143318:183143419:+|3pUTR|ENSG00000135862|msi1|FALSE|unique (ssRNA)
RNA: GGGAGUUCUACAGUCCGACGAUCACAUCCUGUGCCAAAGGUAUUGGUCAUUUAGAAUGUCGGUAGCCAUCCAUCAGUGCUUUUAGUUAUUAUGAGUGUAGGACACUGAGCCAUCCGUGGGUCAGGAUGCAAUUAUUUAUAAAACAACAGAGGAUUGAGCAUCA
B12: ENSG00000136451:be:win_3801|3pUTR|ENSG00000136451|bound_else_gene|NA|bound_elsewhere_windowed (ssRNA)
RNA: GGGAGUUCUACAGUCCGACGAUCACCCCUAAGCUAGAAUGUGGUUGUCAGAACCCUGAAAGUAUUAGUUCUAAAAAAAAAAAGAUAUAUACUAGAAGUAAUUGUUUUAUCAAUUCAUUGUAUAAUAAACAGGAGUGAGACUUCCAACAGAGGAUUGAGCAUCA
B13: chr10:16593140:16593241:-|3pUTR|ENSG00000148484|unk|FALSE|unique (ssRNA)
RNA: GGGAGUUCUACAGUCCGACGAUCUUAUUUUUCUUUUCACUCUCUUUCUAAUGCUUCCCACCUUACCUUUUAGAUUCUUUUGCUAGGUGGGAGAUUGUUAUAAGGUCUUUAAACCAUUUCCAUUUGUUUCUUUAACAUUACCAACAACAGAGGAUUGAGCAUCA
B14: chr17:58089516:58089557:+|3pUTR|ENSG00000264364|msi1_unk|FALSE|overlapping (ssRNA)
RNA: GGGAGUUCUACAGUCCGACGAUCGAAGGCUGCUUUAUGUUUAUUUUUCAAGACUUUAAAAAUAUUUUUUGGUUGUAUUGCACUAGGAAAUCUCUCCCACCUCUCCCUUUUCUCUUUCUUUCCCUAUACAAAAUAAAAGGCCCACAACAGAGGAUUGAGCAUCA

target: T1, UNK ZnF1-6 (called full-length); assay: nsRBNS (natural sequence RNA bind-n-seq); RBNS binding buffer (assumed for nsRBNS): 25 mM Tris pH 7.5, 150 mM KCl, 3 mM MgCl2, 0.01% Triton X-100, 500 ug/ml BSA, 20 U/ml SUPERase-In, 4 C; UNK is unkempt and MSI1 is Musashi-1; names of the RNAs are library labels; protein concentration not given here; high values mean tight binding

Binder | binding signal
B1 | 2.54 enrichment R
B2 | 0.522 enrichment R
B3 | 0.414 enrichment R
B4 | 0.663 enrichment R
B5 | 0.598 enrichment R
B6 | 0.426 enrichment R
B7 | 2.92 enrichment R
B8 | 0.826 enrichment R
B9 | 2.83 enrichment R
B10 | 1 enrichment R
B11 | 2.27 enrichment R
B12 | 2.41 enrichment R
B13 | 4.14 enrichment R
B14 | 2.4 enrichment R
